From PubChem BioAssay AID1508623 (National Center for Advancing Translational Sciences (NCATS), 2021)
About 450 (0.94%) of roughly 48,000 compounds were called active. Another 19% or so got no clear call; they are omitted. Calls come from the whole dose curve; as a rule, active = well fitted inhibition curve with a large enough effect; inconclusive = small, poorly fitted or top-dose-only effect; inactive = no such curve, though single readings can be large or run the other way. The list shows a part of the results.

assay: Primary qHTS for Identification of Small Molecule Inhibitors of Huntingtin Promoter Activity; conditions: HEK293 HTT promoter firefly luciferase reporter (activity 0% = vehicle and -100% = no light), 24 h; series mostly up to 57.5 µM; activity change, negative = inhibition: at the top concentration; note: nearly all actives have a fitted effect of over 50% in size
Outline: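 Quantitative HTS used concentration series of up to 57.5 uM final on HEK293 luciferase reporter cells, 24 h at 37 degrees C. Readout was Dual-Glo firefly luminescence.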

Activity change, negative = inhibition, inactive:
CNc1ccc(-c2nc(-c3ccco3)no2)cc1[N+](=O)[O-] 64.4%, Cc1ccccc1NC(=O)c1ccc2c(O)c(S(=O)(=O)c3ccccc3)c(=O)[nH]c2c1 8.76%, CCOC(=O)N1CCC(NC(=O)c2cnn(-c3ccc(F)cc3F)c2C2CCN(C(=O)OC(C)(C)C)CC2)CC1 -4.22%, COc1ccc(CCNC(=O)c2c(C)oc3ncnc(N4CCOCC4)c23)c(OC)c1 -4.04%, Cc1ccc(S(=O)(=O)Nc2cc3c(cc2C)n(C)c(=O)c(=O)n3C)c(C)c1 -19.3%, Cc1cc(C)cc(Nc2cc(C(=O)NC3CCC(C)CC3)c3ccccc3n2)c1 (centres undefined) 5.49%, CCCN1C(C(=O)c2ccccc2)=C(OC(=O)c2ccc(OC)cc2)c2ccccc2S1(=O)=O -6.91%, Cn1nnnc1SCCCNCc1ccc(-c2ccc(F)c(Cl)c2)o1 -14.1%, CN(Cc1ccc(F)cc1)S(=O)(=O)c1nnc(NC(=O)c2ccccc2Cl)s1 -5.02%, O=C(Cn1c(=O)c(C(F)(F)F)nc2ccccc21)Nc1cccc(Br)c1 8.09%, CCc1ccc(NC(=O)CN2C(=O)CCSc3ccccc32)cc1 -20.4%, Cc1ccc(CNC(=O)C2CCCN(S(=O)(=O)c3cn(C)cn3)C2)cc1 (centres undefined) -21.1%, O=C(NCCc1ccccc1)c1ccc(CS(=O)(=O)Cc2ccccc2Cl)o1 -18.7%, Cc1cc(=O)n(CC(=O)NCc2ccc(OC(C)C)cc2)c2c1c(C)nn2-c1cccc(F)c1 -16.9%, Cc1ccc(NC(=O)C(C)Sc2nc(-c3ccccc3)c(C#N)c(=O)[nH]2)c(C)c1 (centres undefined) -8.87%, O=C(Nc1nnc(S(=O)(=O)N2CCOCC2)s1)c1ccccc1F 23.7%, O=c1c(N2CCc3ccccc3C2)csc2ccc(Cl)cc12 14.1%, CC(C)Cc1nn2c(=O)cc(COC(=O)c3ccc(NC(=O)CCc4ccccc4)cc3)nc2s1 -0.103%, COc1ccc(Nc2c(-c3ccc(N4CCOCC4)cc3)nc3ncccn23)cc1OC -1.6%, CC(C)c1cnc2c(c1SCC(=O)N1CCCCC1)c(=O)n(C)c(=O)n2C -10%, COc1ccc(/C=C/C(=O)Nc2sc(C)c(C)c2C(=O)O)cc1 -1.21%, CCc1ccc2c(c1)NC(c1ccc(C)cc1)=NC(c1cccs1)=N2 11.4%, CCOC(=O)N1CCc2c(sc3c2c(=O)n(Cc2ccccc2)c(=O)n3CC(=O)Nc2ccc(C)cc2C)C1 -9.14%, CCc1ccccc1N(C)C(=O)c1cn(-c2cccc(OC)c2)c(=O)c2ccccc12 -17.8%, Cc1nc2n(c(=O)c1CCN1CCC(c3noc4cc(F)ccc34)CC1)CCCC2, O=C(Nc1ccc(F)cc1F)C1CCN(S(=O)(=O)c2ccc3[nH]c(=O)ccc3c2)CC1 -10.8%, CCc1ccc(NC(=O)Cn2nnc(C(=O)NCc3ccc(C)cc3)c2N)cc1 -2.05%, CCc1ccc(OCc2nc(-c3ccc(OC)c(OC)c3)no2)c(Br)c1 -21.3%, CC(=O)c1ccc(N2C(=O)N(Cc3ccccc3C#N)c3ccccc3S2(=O)=O)cc1 -20.7%, CCOc1ccc(C(=O)NCC(c2ccc3c(c2)OCO3)N2CCOCC2)cc1 (centres undefined) -15.3%, Cc1c(C(=O)Nc2ccc(F)c(Cl)c2)oc2ccc(S(=O)(=O)N(C)C3CCCCC3)cc12 -12%, Cc1ccc(-n2ncc(C(=O)Nc3ccc4c(c3)OCO4)c2C2CCN(C(=O)OC(C)(C)C)CC2)c(C)c1 -10.9%, COc1cc(-c2noc(-c3ccc(NCc4ccco4)c([N+](=O)[O-])c3)n2)cc(OC)c1OC -0.0884%, CCOC(=O)c1nc(Nc2ccccc2OC)c2ccccc2n1 -22%, Cc1cn2c(=O)cc(COc3ccc(NC(=O)c4ccccc4C)cc3)nc2s1 -3.83%, CCCCN(CC)C(=O)c1cc2c(=O)n3ccccc3nc2n1C 30.2%, COc1cc2[nH]c(=O)n(Cc3ccc(C(=O)N4CCN(c5cc(Cl)ccc5C)CC4)cc3)c(=O)c2cc1OC -7.98%, O=C(NCC(c1ccc2c(c1)OCO2)N1CCOCC1)C(=O)Nc1ccc(F)cc1F (centres undefined) 10.9%, O=C(Cn1cnc2c(oc3ccccc32)c1=O)Nc1ccc(OC(F)(F)F)cc1 0.986%, CC(=O)Nc1ccc(CC(=O)O)cc1 -13.4%, O=C(Nc1cccc(Cl)c1)N1CCC(CN2CCOCC2)CC1 -13.6%, O=C(CN1C(=O)CC(c2ccco2)Sc2ccccc21)Nc1ccc(C(F)(F)F)cc1 (centres undefined) -12.7%, Cc1cccc(CCNC(=O)c2cnc3c(C)cccn3c2=O)c1 37.8%, CC(C)(C)c1ccc(S(=O)(=O)c2cn(CC(=O)Nc3ccccc3)c3ccccc3c2=O)cc1 -28.3%, COc1ccccc1CNC(=O)Cc1csc2nc(-c3ccccc3)cn12 8.41%, Cc1ccc(CNC(=O)c2ccc3c(c2)N(Cc2ccccc2)C(=O)c2ccccc2S3(=O)=O)cc1 -13.8%, COC(=O)C1CCN(CC(=O)Nc2cc(C)c3c(=O)oc4ccccc4c3n2)CC1 -0.626%, O=C(CCC1N=C2c3ccccc3N=C(SCc3ccccc3F)N2C1=O)NCCc1ccccc1 (centres undefined) -13.3%, Cc1cc(C)c(NC(=O)Cn2ccn(-c3cccc(Cl)c3)c(=O)c2=O)c(C)c1 -19.2%, CCOC(=O)c1ccc(NC(=O)c2c(C)nn(-c3ccc(F)cc3)c2-n2cccc2)cc1 -14.3%, Cc1ccc2c(c1)N(C(=O)C1CCN(S(=O)(=O)c3c(C)noc3/C=C/c3ccccc3F)CC1)CCO2 -34.9%, COc1ccc(CNC(=O)CCNS(=O)(=O)c2cccc3nsnc23)cc1 -4.99%, COc1ccc(OC)c(CNC(=O)Cn2nc(C)c3nn(-c4ccc(Cl)cc4)c(C)c3c2=O)c1 -23.2%, COc1ccc2oc(=O)c(-c3cn4c(n3)sc3cc(OC)ccc34)cc2c1 -4.78%, CCc1ccccc1NC(=O)Nc1nnc(N(C)Cc2ccccc2)s1 -31.2%, Clc1ccc(N2CCN(c3ncnc4c3cnn4-c3ccccc3)CC2)cc1Cl 7.8%, COc1ccc(NC(=O)c2cc3nc(-c4ccc(Cl)c(Cl)c4)cc(C(F)(F)F)n3n2)c(OC)c1 3.29%, Cc1sc2ncn(CC(=O)Nc3ccc(F)cc3F)c(=O)c2c1S(=O)(=O)N1CCC(C)CC1 -27.8%, CCOc1ccccc1NC(=O)N1CCC(n2c(C)nc3cccnc32)CC1 0%, Cc1c(-c2nnc(SCC(=O)Nc3ccccc3F)o2)nnn1-c1ccc(F)cc1 66.5%, COc1ccc(C(=O)NC2CC(=O)N(c3ccc4c(c3)OCCO4)C2)cc1 (centres undefined) -7.83%, COc1cccc(N2CCN(S(=O)(=O)c3cn(C)c(C)n3)CC2)c1 -3.16%, C[C@H]1[C@H](NC(=O)/C(=N/OC(C)(C)C(=O)O)c2csc(N)n2)C(=O)N1S(=O)(=O)O (stereo in doubt) 14.5%, CC(=O)N1CCc2cc(S(=O)(=O)NC(CC(C)C)C(=O)Nc3ccc(C(C)C)cc3)ccc21 (centres undefined) -19.4%, CC(=O)N1c2ccc(S(=O)(=O)N3CCCCCC3)cc2CC1C(=O)NC(C)C (centres undefined) -0.509%, CCOC(=O)N1CCc2c(sc3c2c(=O)n(Cc2ccccc2)c(=O)n3Cc2cc(C)ccc2C)C1 -3.92%, CC(C)CC(=O)Nc1nc2c(s1)CC(C(C)(C)C)CC2 (centres undefined) 35%, CCc1nn(CCCC(=O)N2CCN(c3cc(Cl)ccc3C)CC2)c(=O)c2cc3occc3n12 -20.2%, COc1ccc(CC(=O)NC2CC(=O)N(c3cccc(F)c3)C2)cc1OC (centres undefined) -5.7%, CCOC(=O)c1c(C)n(S(=O)(=O)c2ccc(C)cc2C)c2ccc(NS(=O)(=O)c3ccc(C)cc3C)cc12 -32%, COc1ccccc1Nc1sc(C(=O)c2ccc3c(c2)OCO3)c(N)c1S(=O)(=O)c1ccccc1 -22.2%, Cc1ccc(C2=Nc3ccccc3N(CC(=O)Nc3ccccc3F)C(=O)C2)cc1C 23.2%, O=C(Nc1cccc(Cl)c1)c1ccc2nc(CCc3ccccc3)oc2c1 -3.96%, CCCn1c2ccccc2c2cnn(CC(=O)NCc3ccccc3Cl)c(=O)c21 -15.5%, CCN(CC)CCCNC(=O)Cc1ccc(NC(=O)N2CCCCc3ccccc32)cc1 -8.39%, O=c1oc2ccccc2cc1-c1nnc(Nc2ccc(Cl)cc2Cl)s1 13.9%, Cc1ccc(-c2nc3cc(Cl)ccc3o2)cc1NC(=O)c1cc([N+](=O)[O-])ccc1N1CCOCC1 -4.93%, CC(=O)NC1CC(=O)N(c2ccc3c(c2)OCCO3)C1 (centres undefined) 7.56%, Cc1nc(-c2ccccc2)sc1-c1ccc(SCC(=O)Nc2cccc(C(F)(F)F)c2)nn1 5.85%, CCC(=O)N1CCc2cc(Br)cc(S(=O)(=O)N3CCC(C(=O)Nc4ccccc4CC)CC3)c21 14.3%, COc1ccc2nc(NC(=O)Nc3ccccc3)sc2c1 20.3%, COc1cc(OC)c(NC(=O)C2CCN(C(=O)c3sc4nc[nH]c(=O)c4c3C)CC2)cc1Cl -13.5%, COCCCNC(=O)c1cnc2c(-c3ccc(F)cc3)c(C)nn2c1C -11.3%, CCOC(=O)C1CCN(C(c2cccc(F)c2)c2c(O)cc(C)n(Cc3ccco3)c2=O)CC1 (centres undefined) -7.33%, CCN1CC(CCN2CCOCC2)C(c2ccccc2)(c2ccccc2)C1=O (centres undefined) 2.71%, CCOc1cccc(C(=O)N2CCC(c3nc4ccccc4s3)CC2)c1 -4.86% [at 11.5 µM], COc1ccc(-c2noc(N(c3cccc(Cl)c3)c3nc(-c4ccc(OC)c(OC)c4)no3)n2)cc1OC -12.8%, O=C(c1ccc(Br)cc1)N1CCN(CCc2ccncc2)CC1 -16.6%, CCOc1ccc(-c2nc(SCC(=O)c3ccccc3)n[nH]2)cc1 -2.42%, CC(=O)c1ccc(NC(=O)CSc2ccc(-c3cccs3)nn2)cc1 14.2%, CN(C)c1ccc(CNC(=O)c2cnc3sc(N4CCOCC4)nn3c2=O)cc1 3.53%, Brc1cccc(-c2nnc(CN3CCN(c4ccccn4)CC3)o2)c1 -11.4%, Cc1ccc(S(=O)(=O)Cc2ccc(C(=O)NCCc3ccc(Cl)cc3)o2)cc1 -24%, Cc1cc(C)nc(NC(=NCCc2c[nH]c3ccc(Cl)cc23)NC(=O)c2ccccc2C)n1 -24.8%
